In all, about 33,000 sequences were measured (“E-score (-0.5 to 0.5)”: median about -0.012, highest 2% from about 0.29 on). Some of the results follow.
Biological target: T1, Ybr033w (UniProt P38073)
T1 sequence: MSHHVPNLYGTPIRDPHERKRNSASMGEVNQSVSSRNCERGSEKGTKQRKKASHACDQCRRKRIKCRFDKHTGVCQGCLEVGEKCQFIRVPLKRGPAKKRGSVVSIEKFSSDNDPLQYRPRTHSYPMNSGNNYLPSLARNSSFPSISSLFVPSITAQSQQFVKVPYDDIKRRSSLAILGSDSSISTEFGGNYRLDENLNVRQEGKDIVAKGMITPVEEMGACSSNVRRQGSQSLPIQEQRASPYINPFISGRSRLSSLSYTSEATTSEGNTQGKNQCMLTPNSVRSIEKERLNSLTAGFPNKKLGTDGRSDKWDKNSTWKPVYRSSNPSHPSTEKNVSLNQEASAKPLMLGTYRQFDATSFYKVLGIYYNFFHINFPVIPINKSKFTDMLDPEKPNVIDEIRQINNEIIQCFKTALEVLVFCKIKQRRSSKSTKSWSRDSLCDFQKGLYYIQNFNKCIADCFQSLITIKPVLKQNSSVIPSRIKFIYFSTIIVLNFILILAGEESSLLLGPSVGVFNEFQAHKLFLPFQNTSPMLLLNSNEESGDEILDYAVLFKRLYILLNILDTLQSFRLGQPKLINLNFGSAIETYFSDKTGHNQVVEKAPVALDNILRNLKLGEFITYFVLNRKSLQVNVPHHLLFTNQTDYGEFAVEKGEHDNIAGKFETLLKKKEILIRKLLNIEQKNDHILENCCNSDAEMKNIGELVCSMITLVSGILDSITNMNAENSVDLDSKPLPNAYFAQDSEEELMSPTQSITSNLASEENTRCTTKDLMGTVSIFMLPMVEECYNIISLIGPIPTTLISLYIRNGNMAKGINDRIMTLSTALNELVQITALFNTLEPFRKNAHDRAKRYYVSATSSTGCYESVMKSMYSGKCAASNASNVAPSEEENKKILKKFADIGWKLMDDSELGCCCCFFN
Experiment: PBM E-score (8-mer binding enrichment) (E-score (-0.5 to 0.5)); higher = stronger / more preferred TF binding; most listed sequences are background and not binding sites
Conditions: protein concentration: 200 nM; construct: GST-full length
In short: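 Universal all-10-mer Agilent arrays, fresh or stripped once, were converted to double-stranded form by primer extension. GST-tagged yeast transcription factors from PURExpress in vitro transcription/translation, full-length or DNA-binding domain only, were applied at about 100-200 nM and detected with fluorescent anti-GST. After masliner normalisation, the Universal PBM Analysis Suite scored each ungapped eight-base word together with its reverse complement by E-score.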

Sequence	PBM E-score
AGACGGAG	-0.0783
ATACGCTA	-0.0114
ATTATGTA	0.312
ATCTTAGA	0.131
ACGAGCGA	0.0677
GACTACAA	-0.0544
GAATGGCA	0.00237
CAGGAGGA	-0.183
ATCTCGAC	0.0863
CGCAGATA	0.0345
GTATCTAA	0.253
GGCAACAC	-0.0993
ACAAAAAC	0.243
GAACATAC	0.276
TAACGAAA	0.257
AGGCAGTA	-0.0626
TCCGTACA	0.0794
AGTCGTTA	0.0146
CGTCCCCC	-0.402
ACGGTGTA	-0.0998
ATAATCGG	0.162
GCGGAAAC	-0.191
ATCTGATG	-0.0196
CCTTGTTA	0.127
ATACCATC	0.136

Sequence	PBM E-score
ACTCCTCG	0.0923
GAGCGATA	-0.0461
ACAGTGCG	-0.157
GCGCACAA	-0.0152
AAGAATAT	0.149
CTAGTTGC	-0.117
CGACCTTC	-0.00154
AGGCCTTC	-0.0617
ACCTGAGT	0.0248
AGATACAG	0.22
ACTGGCAG	-0.116
GATCTCGA	-0.0286
GCATGTGA	-0.0841
GTCGCATA	0.214
ATGGGTCG	-0.217
GACATGCA	-0.0594
CGACAGCA	-0.108
ATCGGCCC	-0.227
CCTCACTA	-0.133
AAACAGAA	0.253
TATTAGGA	0.192
CTTCCAGA	0.0173
AATTCCAA	0.261
CGGCGTAA	0.118
CTCATACA	0.0922

Sequence	PBM E-score
GCTCCTAA	-0.159
AGGATCCC	-0.0813
GTCGGAAC	0.117
GCTCAGAA	0.00445
GCAACTGA	0.0264
GGTCAAAC	0.0635
CCCTCGCA	-0.206
GGGATAAA	0.317
ACACGCAG	-0.0983
ACTTTAAG	0.181
CCTTTTGC	-0.0725
GCATCCGC	-0.142
ACGCCTGC	-0.314
ACCTTACA	0.0943
CCGCACGC	-0.19
ATAGTGCC	-0.0424
GGAGATAA	0.128
CCCTTGTC	-0.24
CCTTTAAA	0.0546
ACGTAAAA	0.243
GCGACGAA	0.0863
AAGCAATG	0.172
TAAGGCTA	-0.134
AAGAGATT	0.124
AACTGACG	-0.161

Sequence	PBM E-score
CCGTTCGC	-0.231
AAGCAACC	0.0073
ACACCCTA	0.161
CACATAAC	-0.012
CCGCAGCC	-0.206
AGTTGAAG	0.0872
GGTTACTA	-0.133
AACACATC	0.227
AGAGCGCT	-0.00506
ATCCGACG	0.0218
AGGACGAT	0.0296
GGACGGTA	0.0723
CGCGCATA	-0.0624
CACGCGAC	-0.178
AGGAACCG	0.0252
ATCGGAAT	0.26
GCCTGTCA	-0.195
ACATAAGG	0.142
CCTCTGGA	-0.0743
CTCCTTAA	0.0773
GGCTGGAC	-0.17
AGTCACTG	-0.263
ATTTAAAC	0.18
ATATGTCG	0.115
ACGAACTC	0.0499

Sequence	PBM E-score
CGTGTTCA	0.0511
GGTGGTGA	-0.03
AATATACA	0.316
TAACCTTA	-0.0618
ACGCTAAT	-0.063
ATCTCAAT	0.189
ACAGTGCT	0.114
CAGGACGG	-0.177
CGCTCGCC	-0.143
CTCCGCGA	-0.127
AGTCTCCA	-0.0529
GGTGTGTA	-0.18
CTGTATTC	0.0612
GCTCAAGA	-0.177
CCATTGCC	-0.0753
CCGAATCC	0.0777
CCGATGAG	-0.179
CGGCCAAG	-0.131
GGGTAGAC	-0.154
CTAGTCAA	0.00957
ACCATGAT	0.0215
TTGGCAAA	0.0817
TAATGGCA	0.121
CTCTTGCA	-0.143
ACCTTGAC	-0.0921

Sequence	PBM E-score
ACATCCTC	-0.0212
ATCTCACC	0.144
AAAGCGCC	-0.253
AGATAATA	0.219
AAATGAAT	0.0218
CGTTCCTA	-0.0409
AAACGTGG	-0.195
AGAGAAAT	0.0817
GAGGTGCA	0.0162
CGACTATA	0.0115
ACACACGA	0.0544
AGCCCTAA	-0.233
CTATCCAC	0.0657
ACTGGATC	0.131
CAGATCAG	-0.106
CGCCACTC	-0.183
ATACTGCA	0.201
CTCTTAAA	0.0832
AGATCCCC	-0.0356
CCTAATCA	0.116
AGGATAGA	0.0657
CTTATATC	0.146
AGCCCATG	-0.0321
AGTCTCGG	-0.172
ATGGCATA	0.141

Sequence	PBM E-score
ATGTCCCC	-0.154
AGTCCCCC	-0.359
AGAAGAAT	-0.0182
CACTCACC	0.0034
AAGGCTCT	-0.0483
ATTACTTC	0.0935
CCTTTGGA	-0.205
TAGCAGAA	0.0828
ATTTAGCA	0.275
AGGATGAG	-0.134
TTCGAAAA	0.153
AGGGAGAC	-0.272
CCTCTGGC	-0.124
ACGTGGAA	-0.0312
AAGTAGTA	0.125
ATACTCCC	-0.0125
CGCGAATC	0.00606
ACCAAGAA	0.103
GTGCTACA	-0.111
CTTGGCCC	-0.288
GGATCCCC	-0.322
CATCTGCA	-0.024
AGCTTGTG	-0.144
GTTGCCCA	0.0908
AACTCATC	-0.0094

Sequence	PBM E-score
GGGCTAAC	-0.168
CGGCGTGC	-0.303
AGAATCAA	0.091
GTAATCCA	0.0788
AACGGAAG	0.0503
CCGTTCAA	0.155
CACGCTAG	-0.188
ACTCCATG	-0.106
CCGAAACC	-0.12
AACACTGA	0.208
GCAGAGCC	-0.0675
CTATTGCC	-0.129
GAGTGGGC	-0.189
AATTCTGC	0.0888
AAGCGGCG	-0.112
TACATCAA	0.0979
CCGACTCG	-0.0146
AGATTTGG	-0.122
CACAACCA	0.0137
CGGACACG	-0.141
AAGTATCC	0.0423
AACTGTAG	0.161
CGGGGGTC	-0.296
AAATACAA	0.284
GCCTGTAC	0.0707

Sequence	PBM E-score
CACTTCGC	-0.0211
GGGAACCC	-0.202
CATGAAAA	0.165
CCGGCTCG	0.0646
CGACGAGA	-0.12
AATAGTAT	0.293
CAATGAAG	0.0396
CTATGTTC	0.145
ATGGGGCC	-0.322
AACAGAGA	0.172
CCATCAAC	0.136
AATAAGTC	0.197
AGACCACT	-0.0843
GCCAGCGA	-0.164
AACGGTTA	-0.0197
AACTTATT	0.21
ACACTAGC	-0.067
CCAATAAG	0.00582
GCTGTGCC	-0.00906
GAGCTACC	0.02
GAGAAGCC	-0.268
TGCCCGAA	0.0118
GAAGTCGC	0.00954
CCACGGAA	0.0292
GTATCCGA	-0.0198

Sequence	PBM E-score
ACGCCTTA	-0.209
CTTCATAA	0.148
AATACCGC	0.0223
CCACTAGG	-0.174
CATTGACC	0.0887
ACTTCCAT	0.00515
GGGTCCTA	-0.279
GGTCGCAC	-0.0828
ATTTTCCA	0.361
CGACAACA	-0.00263
AGGCTAAG	-0.128
CGATTACC	-0.101
TCAGAGAA	0.0787
CTTCGCTA	-0.214
AGACAAAT	0.129
CATATAAG	0.114
ACCGTATC	-0.0272
ACCTCACG	-0.0608
CTAATGCC	-0.0504
GGTATCGA	0.092
AACACAGG	-0.131
AGAGGATG	-0.0267
CGTGAACC	-0.0959
CTTCGGTA	-0.0419
AGTTCGAA	0.197

Sequence	PBM E-score
CTCTCAAC	-0.0216
CACTGACC	-0.269
GTAACAAA	0.199
GCCTCTTA	-0.135
AGACTATC	0.116
ATTCAGTG	0.224
AGGCGTGC	-0.00418
TAGGGAGA	-0.159
AGCGCACG	-0.267
ACAGTAGG	0.0476
GCCTCTCC	-0.241
AATATTAG	0.228
GTCATCAC	-0.105
ATCGCGCA	-0.178
GAACACAA	0.00401
AAGCCATC	0.00583
ATGCTGAA	0.0472
CAGCCGAC	-0.218
ATTAGTTA	0.344
AGACCTGA	-0.0516
CACGTCCA	-0.234
TCCTTAGA	-0.173
TGATATAA	0.179
ATCCCCTG	-0.205
ACTACAGA	0.268

Sequence	PBM E-score
ACTGCTTG	-0.0147
AAAACGAG	0.0327
CGTCAGTA	-0.118
CCGGCGAG	-0.184
GAGGGAGC	-0.285
AGGTTTAA	0.137
ACATGGAG	-0.135
GAGCTCCA	-0.146
ACAAGTGT	0.117
AGCATCAC	-0.131
ATAATTAA	0.414
GCACCGCC	-0.263
AGCAGGGC	-0.273
ACGATCTG	-0.123
CTGGTATC	0.128
CGCCCTGA	0.0278
GCATGAAA	0.172
GATCGGTA	0.0772
AAGACATT	-0.109
AAGAACCG	0.18
CATCTCTA	0.0677
ACATTCCT	-0.018
CCAGCACG	-0.114
AGCCGAAC	-0.166
CCCCCAAG	-0.15

Sequence	PBM E-score
GCGGTTCA	-0.0458
GCAACCTA	0.056
GACCGCAA	-0.0488
TGGGACAA	0.0696
CGCCGATC	-0.0951
ATAAACAC	0.241
GCCAAAAA	0.212
ACGAACAG	-0.146
ATGCACGA	-0.021
CACAAACC	-0.139
CCTCCAGG	-0.322
ACTTCTAT	0.191
AACTACAT	0.188
CTCAGGAC	-0.113
TGACTAAA	0.0305
CTTGATGA	0.197
CTAAATAC	0.244
TAACCAAA	0.186
TGGGCCCA	-0.281
CCGACATA	-0.03
ACTAGGTA	0.0345
AAAAGGCT	0.0191
ACCGTCGA	-0.21
ATTGAGAA	0.133
GGCGTAAA	0.138

Sequence	PBM E-score
CGTCGAAG	-0.0262
ACCTGTCG	-0.123
AGTGGTAA	0.143
CGAAGATC	-0.0525
CGTCCATC	-0.0544
CTAGTGCC	-0.156
GACAAGGA	-0.025
AAACTCTT	0.0712
AGGATACA	-0.0131
GTGGCGGA	0.0388
CCTTGGAA	0.183
ACCCAAGC	-0.293
GAACGGGA	-0.0404
CGAAGAAG	-0.0565
AATCCGTC	0.158
AGAAATCC	0.0392
AGGGATTA	0.187
ACTACCAC	0.147
CCTGAGCA	-0.075

Reference: the supplement of paper PMC3334620
